Among all 310,000 compounds or so, about 2,200 (0.71%) showed an effect of 50% or more. The effect is printed as a negative number. Some of the results follow.

This assay deals with human ether-à-go-go-related gene (hERG) potassium channel (human, UniProt Q12809). Kind of assay: primary screen, population patch clamp on CHO cells stably expressing hERG.
Chain of human ether-à-go-go-related gene (hERG) potassium channel (Q12809 whole entry, looked up): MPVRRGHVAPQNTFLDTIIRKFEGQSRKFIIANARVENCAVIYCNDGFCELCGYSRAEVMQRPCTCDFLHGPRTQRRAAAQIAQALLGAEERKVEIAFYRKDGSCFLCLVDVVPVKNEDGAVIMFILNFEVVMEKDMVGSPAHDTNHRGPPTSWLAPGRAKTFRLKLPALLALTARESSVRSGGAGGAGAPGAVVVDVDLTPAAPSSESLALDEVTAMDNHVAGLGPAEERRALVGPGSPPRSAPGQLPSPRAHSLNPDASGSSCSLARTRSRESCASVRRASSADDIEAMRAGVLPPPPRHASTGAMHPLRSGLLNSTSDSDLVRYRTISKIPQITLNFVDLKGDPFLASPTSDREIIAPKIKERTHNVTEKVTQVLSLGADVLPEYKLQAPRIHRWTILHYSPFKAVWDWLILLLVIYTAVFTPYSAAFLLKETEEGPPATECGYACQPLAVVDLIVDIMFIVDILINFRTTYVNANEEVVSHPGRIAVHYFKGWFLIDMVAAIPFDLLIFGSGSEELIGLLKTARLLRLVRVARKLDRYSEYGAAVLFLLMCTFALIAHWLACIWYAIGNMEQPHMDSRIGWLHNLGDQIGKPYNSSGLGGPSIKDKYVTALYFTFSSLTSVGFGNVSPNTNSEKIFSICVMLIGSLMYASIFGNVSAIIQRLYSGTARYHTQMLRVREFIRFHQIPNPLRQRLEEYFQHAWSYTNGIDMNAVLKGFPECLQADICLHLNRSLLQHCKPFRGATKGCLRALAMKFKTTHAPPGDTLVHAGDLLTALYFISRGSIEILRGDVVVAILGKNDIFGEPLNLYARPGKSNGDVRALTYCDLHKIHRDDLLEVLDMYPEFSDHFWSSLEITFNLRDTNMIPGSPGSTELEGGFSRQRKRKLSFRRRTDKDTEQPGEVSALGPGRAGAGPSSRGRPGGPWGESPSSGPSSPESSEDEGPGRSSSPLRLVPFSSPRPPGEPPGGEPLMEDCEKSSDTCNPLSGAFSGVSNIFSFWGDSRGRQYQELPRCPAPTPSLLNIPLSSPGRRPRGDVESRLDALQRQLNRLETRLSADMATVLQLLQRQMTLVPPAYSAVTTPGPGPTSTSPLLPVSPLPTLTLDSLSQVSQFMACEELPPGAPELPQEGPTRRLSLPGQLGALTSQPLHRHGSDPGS
For `Cc1ccc(S(=O)(=O)N2CCC(C)CC2)cc1C(=O)NCCN1CCOCC1`, the “hERG current change (%, negative = inhibition) at 1uM” value is recorded as 12.4%. To `CC1CN(S(=O)(=O)c2cccc(C(=O)NN3CCN(C)CC3)c2)CC(C)O1.Cl` (stereo not drawn) belongs 3.24%; to `CCN(CC)P(c1n(C)cc[n+]1C)N(CC)CC.[I-]`, 5.31%. To `O=C(O)c1cccc(N/N=C/c2cc(Br)cc(Br)c2O)c1` belongs 11.5%; to `Cc1ccc(C(=O)Nc2ccccc2C(=O)O)cc1S(=O)(=O)NC1CCCCC1`, -17.7%; to `N/C(=N\c1nc(CSc2ccc(Cl)cc2)cc(=O)[nH]1)Nc1ccccc1C(F)(F)F`, 5.05%.

Turning to `COc1ccc(N/C(=C(/C(Cl)=C(Cl)Cl)[N+](=O)[O-])n2nnc3ccccc32)cc1`, the “hERG current change (%, negative = inhibition) at 1uM” value is on record as 10.8%.

Consider `CC(C)OC(=O)c1sc2nc3c(cc2c1N)C(=O)CCC3`, for which the “hERG current change (%, negative = inhibition) at 1uM” value amounted to 5.21%.

With `Oc1ccc(-c2cnns2)c(O)c1`, the “hERG current change (%, negative = inhibition) at 1uM” value is listed as -4.1%. In the case of `CN(CC1CCN(CCc2cccc(C(F)(F)F)c2)CC1)C(=O)c1ccc(F)cc1F` it was -35.9%; in that of `COc1ccc(S(=O)(=O)N2CCOC2CNC(=O)C(=O)NCc2ccccc2OC)cc1` (stereo not drawn), 7.72%; in that of `CCOC(=O)c1cccc(NS(=O)(=O)c2c(C)[nH]c(=O)[nH]c2=O)c1`, 5.47%. To `O=C(NCCC1=CCCCC1)C1CCN(c2nc3ccccc3o2)CC1` belongs 6.7%; to `CN(C(=O)c1ccc(NC(=O)Cc2cccc(NC(=O)C3CCN(C(=O)c4ccccc4)CC3)c2)cc1)C1CCCC1`, 8.08%. In the case of `CCN1C(N(C)CCc2cccs2)=N[C@@H](c2ccccc2)C(C(=O)OC)=C1C` it was -21.4%; in that of `N#C/C(=C\c1c(N2CCCCCC2)nc2ccccn2c1=O)C(N)=O`, 11.7%; in that of `CN(c1ccccc1)S(=O)(=O)c1ccc(NC(=O)C2CC2)cc1`, 8.45%. In the case of `Cc1cccc(NC(=O)C(C)N2C(=O)c3ccccc3S2(=O)=O)n1` (stereo not drawn), the “hERG current change (%, negative = inhibition) at 1uM” value amounted to 5.26%.

For `O=S(=O)(CCc1ccccc1)N1CCOCC1`, the “hERG current change (%, negative = inhibition) at 1uM” value is 10.9%. Turning to `COCCNC(=O)/C(C#N)=C/c1cn(CC(=O)NCc2ccco2)c2ccccc12`, the “hERG current change (%, negative = inhibition) at 1uM” value was 2.31%.

In the case of `COc1cccc(CN2CC(C(=O)NCc3ncc(C)[nH]3)CCC2=O)c1` (stereo not drawn), the “hERG current change (%, negative = inhibition) at 1uM” value amounted to 16.9%. On to `CC(=O)Nc1cccc(NS(=O)(=O)c2cc3c4c(c2)CCN4C(=O)CC3)c1`, for which the “hERG current change (%, negative = inhibition) at 1uM” value is given as -5.08%. Consider `CCc1ccc(Nc2c([N+](=O)[O-])c(=O)oc3ccccc23)cc1`, for which the “hERG current change (%, negative = inhibition) at 1uM” value is 11.5%. To `Cc1ccc(CSc2ncccc2C(=O)O)cc1` belongs 10.9%; to `CN(C)c1ccc(NC(=O)CSc2nc3c(c(=O)[nH]2)CCCC3)cc1`, -12.3%; to `O=C(O)c1cc(-c2ccco2)[nH]n1`, 3%. To `Cc1ccc2oc(=O)c3cnn(CC(=O)NCCCOC(C)C)c3c2c1` belongs 3.01%; to `Fc1cccc(CSc2nc3ncccc3[nH]2)c1`, 17.1%; to `CC(=O)NCc1ccc(C(=O)CSc2nnc(C3CC3)n2C2CC2)cc1`, 13.5%. To `CCc1c(C)nc(SCC(=O)NC2CCCC2)[nH]c1=O` belongs 19.8%; to `COC(CNS(=O)(=O)c1ccc(Cl)cc1)c1ccccc1` (stereo not drawn), 6.16%. Turning to `Cc1ccc(OCCn2c(=O)n(C)c3ccccc32)cc1`, the “hERG current change (%, negative = inhibition) at 1uM” value stood at 11%. On to `CCOc1ccccc1-c1noc(CCCC(=O)NC2CCCCC2)n1`, for which the “hERG current change (%, negative = inhibition) at 1uM” value was 11.1%. To `COc1ccc(CNC(=O)C2CCCN(S(=O)(=O)c3c(C)n[nH]c3C)C2)cc1` (stereo not drawn) belongs 0.393%. As to `O=C(NC(Cc1ccccc1)C(=O)O)OCC1c2ccccc2-c2ccccc21` (stereo not drawn), the “hERG current change (%, negative = inhibition) at 1uM” value stood at 13.1%.

In the case of `Cl.O=[N+]([O-])c1ccccc1OCCCN1CCc2ccccc2C1`, the “hERG current change (%, negative = inhibition) at 1uM” value is on record as -8.59%. In the case of `COC(=O)c1ccccc1NC(=O)CNC(=O)c1ccc(OC)cc1` it was 2.5%; in that of `CN(C)C(=O)c1cc2cc([N+](=O)[O-])ccc2s1`, 5.57%. In the case of `CC(C)CC(=O)N1CCN(S(=O)(=O)c2ccc(Cl)cc2)CC1` it was 0.918%; in that of `CCCCN(C(=O)Cn1nnc2ccccc21)C(C(=O)NCc1ccco1)c1ccncc1` (stereo not drawn), 3.31%; in that of `Cc1cc(Oc2ccccc2)nc(-c2ccccc2O)n1`, -3.35%. Turning to `Cc1ccc2nc(C)cc(C(=O)Nc3nccs3)c2c1`, the “hERG current change (%, negative = inhibition) at 1uM” value was determined as 10.8%.

Take `COc1ccc(/C=N/N=C2\SCC(=O)N2c2c(C)n(C)n(-c3ccccc3)c2=O)cc1OC`: the “hERG current change (%, negative = inhibition) at 1uM” value is reported as 23.4%. In the case of `Cc1[nH]c(=O)[nH]c1C(=O)CCCCC(=O)OCC(=O)Nc1ccccn1` it was 13.1%. In the case of `COc1cccc(-c2nc(-c3ccncc3)no2)c1` it was -0.32%.
